{"source": "PubChem BioAssay AID504832", "about": "(National Center for Advancing Translational Sciences (NCATS), 2011)", "note": "Screen size: about 310,000 compounds; about 18,000 (5.8%) were called active. Inconclusive means that the source gave no clear call. Such entries were picked first, then a sample of the others. Calls follow the shape of the dose curve; as a rule, active = well fitted inhibition curve with a large enough effect; inconclusive = small, poorly fitted or top-dose-only effect, or another doubt; inactive = no such curve, though single readings can be large or run the other way. No potency is given beside an inconclusive call; the fits are too rough.", "data": [{"assay": "Primary qHTS for delayed death inhibitors of the malarial parasite plastid, 48 hour incubation; also: potency is read from the fitted curve at half-maximal effect; tags tell the direction and shape of the fitted curve", "settings": "P. falciparum luciferase growth in erythrocytes; series mostly up to 28.7 µM", "how_it_was_run": "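First compound was added to culture medium, then infected red cells at 0.1% parasitemia and 2% hematocrit (final). After incubation at 37 C under 5% CO2, luciferase detection reagent was dispensed and light output recorded.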", "values": [{"compound": "CCOC(=O)C(NC(C)=O)C(OC(C)=O)c1cccc(N(CCCl)CCCl)c1", "note": "(stereo not drawn)", "Potency": "inconclusive [inhibitor, single point]"}, {"compound": "C#CCNC(=O)C1=C[C@H](c2ccc(C(F)(F)F)cc2)C[C@H](OCCCCO)O1", "Potency": "inconclusive [inhibitor, single point]"}, {"compound": "O=C(CSc1nccn1-c1ccccc1)NCc1ccc(F)cc1", "Potency": "inconclusive [inhibitor, single point]"}, {"compound": "O=C(CSc1nn(-c2ccc(Cl)cc2)c(=S)s1)N1CCN(C(=O)c2ccco2)CC1", "Potency": "active: 4.65 µM"}, {"compound": "O=S(=O)(NCCSc1nnc(-c2ccco2)n1-c1ccccc1)c1ccccc1", "Potency": "inconclusive [inhibitor, partial curve, poor fit]"}, {"compound": "COc1ccc(N2CCN(C(=O)c3ccc(Oc4ccc(C(F)(F)F)cn4)cc3)CC2)cc1", "Potency": "inconclusive [inhibitor, partial curve, poor fit]"}, {"compound": "Cn1c(Oc2ccccc2NCc2cc(Br)ccc2O)cc(=O)n(C)c1=O", "Potency": "inconclusive [inhibitor, partial curve]"}, {"compound": "CCOC(=O)c1cccc(Nc2ncnc3ccc(C)cc23)c1", "Potency": "active: 11.7 µM"}, {"compound": "Cc1cccc(-c2nnc(SCC(=O)NCc3ccc4c(c3)OCO4)n2C)c1", "Potency": "inconclusive [inhibitor, partial curve, poor fit]"}, {"compound": "Cc1ccccc1NC(=S)NCCc1ccc(S(N)(=O)=O)cc1", "Potency": "inconclusive [inhibitor, partial curve, poor fit]"}, {"compound": "COC1C=CO[C@@]2(C)Oc3c(C)c(O)c4c(O)c(c(C=NN5CCN(C)CC5)c(O)c4c3C2=O)NC(=O)/C(C)=C\\C=CC(C)C(O)[C@@H](C)C(O)C(C)[C@H](OC(C)=O)C1C", "note": "(stereo partly drawn)", "Potency": "active: 0.953 µM"}, {"compound": "CC1=C(/C=C/C(C)=N\\NC(=O)c2ccncc2)C(C)(C)CCC1", "Potency": "active: 13.1 µM"}, {"compound": "CCC(=O)n1nc(-c2ccc(OC)cc2)nc1SC", "Potency": "inactive"}, {"compound": "Cc1ccc(NC(=O)CCNS(=O)(=O)c2cccc3nonc23)cc1Cl", "Potency": "inconclusive [inhibitor, single point]"}, {"compound": "Cc1cccc(C)c1NC(=O)CN1CCN(CC(=O)c2cc(C)n(C3CC3)c2C)CC1", "Potency": "inconclusive [inhibitor, partial curve]"}, {"compound": "CC(=O)CC(=O)NC1C2CC3CC(C2)CC1C3", "note": "(stereo not drawn)", "Potency": "inconclusive [inhibitor, full curve, poor fit]"}, {"compound": "COc1ccccc1OCCn1c(=O)n(C)c2ccccc21", "Potency": "inactive"}, {"compound": "CC(/C=N/N1C(=O)CSC1=S)=C\\c1ccccc1", "Potency": "inactive"}, {"compound": "O=C(CCC1CCCC1)Nc1ccc([N+](=O)[O-])cn1", "Potency": "inactive"}, {"compound": "O=C(NC1CCS(=O)(=O)C1)c1cccs1", "note": "(stereo not drawn)", "Potency": "inactive"}, {"compound": "CC(=O)N(c1ccccc1)C(C)c1nc(C#N)c(C#N)nc1C", "note": "(stereo not drawn)", "Potency": "inconclusive [inhibitor, single point]"}, {"compound": "CC1Cc2ccccc2N1C(=O)CSc1nnc2n1C(C)(C)Cc1ccccc1-2", "note": "(stereo not drawn)", "Potency": "inconclusive [inhibitor, partial curve, poor fit]"}, {"compound": "CN1CCN(c2nc(Nc3ccc(O)cc3)nc3ccccc23)CC1", "Potency": "active: 2.94 µM"}, {"compound": "OCCN(CCO)CC(O)COc1ccc(Br)cc1", "note": "(stereo not drawn)", "Potency": "inactive"}, {"compound": "CCN1CCN(c2ccc(S(=O)(=O)N3CCCCC3)cc2NC(=O)COc2ccc(Cl)c(C)c2)CC1", "Potency": "active: 4.65 µM"}, {"compound": "Cc1ccc(C)c(NC(=O)C(C)N2C(=O)c3ccccc3C2=O)c1", "note": "(stereo not drawn)", "Potency": "inactive"}, {"compound": "Cc1nn(C)cc1CN(C)C(=O)CC12CC3CC(CC(C3)C1)C2", "Potency": "inconclusive [inhibitor, full curve]"}, {"compound": "Cc1ccc(CC(=O)Nc2nncs2)cc1", "Potency": "inconclusive [inhibitor, partial curve, poor fit]"}, {"compound": "O=C1C(=O)N(CCN2CCOCC2)C(c2ccccn2)/C1=C(/O)c1ccc(F)cc1", "note": "(stereo not drawn)", "Potency": "inconclusive [inhibitor, single point]"}, {"compound": "COc1cc2c(cc1OC)C(NNC(=O)c1ccc(Br)o1)=NC(C)(C)C2", "Potency": "inconclusive [inhibitor, partial curve, poor fit]"}, {"compound": "CC(C)Cn1c(C23CC4CC(CC(C4)C2)C3)n[nH]c1=S", "Potency": "inconclusive [inhibitor, partial curve, poor fit]"}, {"compound": "CCN(C(=O)CN1CCN(c2ccc(O)cc2)CC1)c1c(N)n(Cc2ccccc2)c(=O)[nH]c1=O", "Potency": "inconclusive [inhibitor, single point]"}, {"compound": "COc1ccc(OC)c(-c2nc(C(=O)NC3CCN(Cc4ccccc4)CC3)cc3c2[nH]c2ccccc23)c1", "Potency": "active: 8.28 µM"}, {"compound": "C=C(C)COc1ccc(-c2nc(N)nc(C)c2Oc2ccccc2OC)c(O)c1", "Potency": "inconclusive [inhibitor, single point]"}, {"compound": "CCc1nnc(SCC(=O)Nc2ccccc2)n1CC1CCCO1", "note": "(stereo not drawn)", "Potency": "inactive"}, {"compound": "Cc1ccc(CNC(=O)CSc2nc3c(sc4ccccc43)c(=O)n2CCCN2CCCC2)cc1", "Potency": "active: 10.4 µM"}, {"compound": "CCOC(=O)C1=C(COC(=O)Cc2ccccc2)NC(=O)NC1C", "note": "(stereo not drawn)", "Potency": "inactive"}, {"compound": "O=C(N/N=C/c1c[nH]c2ccc(Br)cc12)c1ccn(Cc2ccc(Cl)cc2Cl)n1", "Potency": "inconclusive [inhibitor, partial curve, poor fit]"}, {"compound": "COc1ccc(C(C)=O)cc1CC(=O)N(Cc1ccccc1)c1ccccc1", "Potency": "inconclusive [inhibitor, partial curve, poor fit]"}, {"compound": "COc1cc(C(=O)Nc2cccc(-n3cnnn3)c2)cc(Cl)c1OC", "Potency": "active: 9.28 µM"}, {"compound": "C=Cn1cc[n+](CC(=O)c2ccc(Cl)c(Cl)c2)c1", "Potency": "inconclusive [inhibitor, partial curve, poor fit]"}, {"compound": "O=C(Nc1ccc2nn(-c3ccccc3)nc2c1)c1ccc(Br)o1", "Potency": "inconclusive [inhibitor, single point]"}, {"compound": "N#Cc1ccccc1S(=O)(=O)N1CCN(C(=O)c2cc(-c3ccccc3)nn2-c2ccccc2)CC1", "Potency": "inconclusive [inhibitor, single point]"}, {"compound": "COc1ccc(S(=O)(=O)n2nc(-c3ccc(Cl)cc3)cc2N)cc1", "Potency": "inconclusive [inhibitor, single point]"}, {"compound": "O=C(c1cc(F)ccc1F)N1CCC(N2CCC(C(=O)N3CCCC3)CC2)CC1", "Potency": "inactive"}, {"compound": "CCCCn1nnnc1SCC(=O)NNC(=O)C1CCCCC1", "Potency": "inconclusive [inhibitor, partial curve, poor fit]"}, {"compound": "Cn1c(CCNC(=O)c2cccs2)nnc1SCC(=O)N1CCN(c2ccccc2)CC1", "Potency": "inconclusive [inhibitor, single point]"}, {"compound": "CCC(CC)NCc1ccc(OC)cc1OC", "Potency": "inactive"}, {"compound": "CC(/C=N/NC(=O)c1cc(-c2cccnc2)nc2c1c(C)nn2-c1ccccc1)=C\\c1ccccc1", "Potency": "inconclusive [inhibitor, single point]"}, {"compound": "COc1ccccc1-c1cn[nH]c1-c1ccc(O)cc1O", "Potency": "inconclusive [inhibitor, single point]"}, {"compound": "O=C(Nc1ccccc1N1CCOCC1)c1ccc(F)c(S(=O)(=O)N2CCOCC2)c1", "Potency": "inconclusive [inhibitor, single point]"}, {"compound": "CC(C)[C@H](NC(=O)c1ccco1)C(=O)OCC(=O)c1ccc2c(c1)NC(=O)CO2", "Potency": "inactive"}, {"compound": "COc1ccc(/C=C/c2c([N+](=O)[O-])c(=O)n(C)c(=O)n2C)cc1OC", "Potency": "inconclusive [inhibitor, partial curve, poor fit]"}, {"compound": "CC1(C)Oc2ccc3ccc(=O)oc3c2/C(=C/O)C1=O", "Potency": "inactive"}, {"compound": "O=C(Nc1ccc2oc(-c3ccncc3)nc2c1)c1ccco1", "Potency": "inconclusive [inhibitor, single point]"}, {"compound": "O=C(O)CNC(=O)c1ccccc1I", "Potency": "inactive"}, {"compound": "Cc1ccsc1C(=O)NC1CCCN(Cc2ccc(Cl)cc2)C1", "note": "(stereo not drawn)", "Potency": "inconclusive [inhibitor, partial curve]"}, {"compound": "NC(=O)C1CCN(c2nc(-c3ccc4ccccc4c3)cs2)CC1", "Potency": "inconclusive [activator, partial curve, poor fit]"}, {"compound": "Cc1cc2c3c(c1C)C1(C(=O)N3C(C)(C)CC2C)C(C#N)=C(N)OC2=C1C(=O)CC(C)(C)C2", "note": "(stereo not drawn)", "Potency": "active: 13.1 µM"}, {"compound": "COc1ccc(-c2csc3ncnc(N4CCN(c5cccc(OC)c5)CC4)c23)cc1", "Potency": "inconclusive [inhibitor, single point]"}, {"compound": "O=C(/C=C/c1ccco1)Nc1nc(-c2ccc(F)c(F)c2)cs1", "Potency": "inconclusive [inhibitor, single point]"}, {"compound": "CCCCN=C(Nc1ccc(Cl)cc1)c1cccnc1", "Potency": "inconclusive [inhibitor, single point]"}, {"compound": "Cc1cccc(Cn2cnc3c(NS(C)(=O)=O)c(C)c(C)cc32)c1", "Potency": "inconclusive [inhibitor, single point]"}, {"compound": "CCCCOC(=O)c1nc[nH]c1C(=O)OCCCC", "Potency": "inactive"}, {"compound": "O=c1ccc(-c2ccccc2)no1", "Potency": "inconclusive [inhibitor, partial curve]"}, {"compound": "O=C(NCC1COc2ccccc2O1)c1cc2ccccc2o1", "note": "(stereo not drawn)", "Potency": "inconclusive [inhibitor, partial curve, poor fit]"}, {"compound": "COc1ccc(OC)c(S(=O)(=O)N2CCC(C(=O)Nc3cccc(C)c3C)CC2)c1", "Potency": "inconclusive [inhibitor, partial curve]"}, {"compound": "CCCCN(CCCC)c1ccc(C(=O)c2ccccc2C(=O)O)c(O)c1", "Potency": "inconclusive [inhibitor, full curve, poor fit]"}]}]}
